Measurements reported in ChEMBL document CHEMBL4888484, “Replenishing the malaria drug discovery pipeline: Screening and hit evaluation of the MMV Hit Generation Library 1 (HGL1) against asexual blood stage Plasmodium falciparum ,using a nano luciferase reporter read-out” (2022).
The whole screen tested about 150,000 compounds, of which about 540 (0.36%) showed an effect of 50% or more. This is one part of the list.

Tested on: Plasmodium falciparum
Test: Primary screen in NF54 nanoGlo assay, in single point, at 2uM, 72h; a lower Z score goes with more inhibition
Assay type: functional, Erythrocyte
Settings: timepoint 72 hour

SMILES	% Inhibition [%]	Z score
COC1CC(Nc2cccnc2C#N)C1(C)C (stereo not drawn)	-12	1.3
COc1ncccc1-c1ccc(NC2CCCC2)nn1	-14	2.22
O=C(Nc1ccc2c(c1)CCC2)c1cccc(S(=O)(=O)N2CCOCC2)c1	6	-1.01
Cc1cc(C(=O)NC[C@@H](c2ccc(F)cc2)N2CCCC2)cnc1C	-7	1.09
Cc1nc(O)c(C(=O)NCCc2nncn2C)cc1Br	-10	1.17
COc1ccc(C(=O)Nc2cccnc2N(C)C)cc1-c1ccccn1	-12	2.28
O=C(NCCNc1ncccn1)c1ccoc1	-3	0.39
Cc1cc(C(=O)NS(=O)(=O)C2CCCOC2)nn1C(C)C1CC1 (stereo not drawn)	-11	1.91
Cc1nnc(NC(=O)CN2CCc3nc(NC(=O)c4ccoc4)sc3C2)s1	-8	1.62
CCn1cc(COc2ccc(N)cc2)c(C)n1	28	-3.17
Cc1cccc(NC(=O)c2ccc(=O)n(CCC(=O)Nc3ccc4c(c3)OCO4)n2)c1	-7	1.18
Cc1cc(CNC(=O)N2CCC[C@H](C)C2)on1	2	-0.28
COc1ccc(OCC(=O)N2CCO[C@H](c3ccccc3)C2)cc1	-22	3.48
Cc1ccc(C[C@H](CO)CNC(=O)c2ccc3c(c2)OCO3)cc1	-11	1.17
Cc1ccc(S(=O)(=O)N2CCC(c3csc(N)n3)CC2)cc1	36	-5.25
CCOCCCNCc1cccc(OC)c1	-7	1.15
O=C(NCCN1CCCC1)c1cc2n(n1)CCN(Cc1ccccc1Cl)C2=O	-11	1.35
Cc1ccc(NC(=O)c2ccc3c(c2)N(C)C(=O)c2ccccc2O3)c(C)c1	-1	0.21
C[C@@H]1Oc2ccc(NC(=O)CCc3ccsc3)cc2NC1=O	-15	2.06
CCCc1c(C(=O)NCc2ccco2)cnn1-c1nc(C)cc(=O)[nH]1	11	-1.39
CCN1CCNC(=O)[C@@H]1CC(=O)NCc1cc2c(cc1OC)OCCO2	-9	1.52
Cn1nc2c(cc1=O)C[C@@H](C(=O)NCc1ccccn1)CC2	-11	2.1

SMILES	% Inhibition [%]	Z score
Cc1nscc1C(=O)NCC(F)(F)C(F)F	1	-0.12
O=S1(=O)CCC(c2ncnn2C2Cc3ccccc3C2)CC1	-5	0.98
Fc1cc(F)cc(-c2noc3ncnc(N4CCN(Cc5ccccc5)CC4)c23)c1	0	-0.01
CCN(C1CCCCC1)S(=O)(=O)c1ccc(C(=O)Nc2ccc3nc(C)sc3c2)cc1	-10	1.62
O=C1c2ccccc2N[C@H](c2ccc(Cl)cc2Cl)N1c1ccc2ccccc2c1	-22	2.52
CS(=O)(=O)NCCN1CCOc2ccccc2[C@@H]1CO	-8	1.48
O=C1C2CC=CCC2C(=O)N1Cc1noc(C2CC2)n1 (stereo not drawn)	-3	0.48
c1ccc(C[C@H](Nc2ncnc3c2CCC3)c2ccccn2)cc1	-3	0.59
O=C(NCCc1c[nH]c2ccccc12)C1CC1c1ccco1 (stereo not drawn)	-9	0.88
N#Cc1cc(F)c(N2CCC(c3nncn3C3CC3)CC2)c(F)c1	3	-0.33
CCOCCC(=O)N[C@H]1CN(c2nccc(NC)n2)C[C@@H]1C(C)C	2	-0.3
CN1CCN(S(=O)(=O)c2ccccc2F)C[C@]12CCNC(=O)CC2	0	0.04
Cc1ccc(NC(=O)[C@H]2Nc3cc(F)ccc3S(=O)(=O)N2)cc1F	-8	1.41
COC(=O)CN1CCC[C@H](NCC(F)(F)F)C1	-6	0.79
Cc1ccc(C(=O)Cn2c(=O)ncc3c2cnn3[C@H]2CCS(=O)(=O)C2)c(C)c1	-1	0.1
Cc1noc(C2CCN(C(=O)c3cc(C(C)C)[nH]n3)CC2)n1	-36	4.23
Cc1nc(-c2ccco2)ccc1C(=O)N(C)Cc1cnn(C)c1	-3	0.44
Cc1cnccc1CC(=O)N[C@H](CO)CC1CCCC1	-18	2.84
Cc1noc(C)c1CN(C)C(=O)NC1CCCC1Oc1ccccc1 (stereo not drawn)	-13	1.78
CCOCc1c(C)c2ccc(C(C)(C)C)cc2[nH]c1=O	26	-2.99
CN1CC[C@@H]2CN(C(=O)C3(c4ccccc4)CCCC3)C[C@]2(C(=O)O)C1	3	-0.58
Cc1ccc(-c2nc(C(=O)N3CCN(c4ccc(Cl)cc4)CC3)cs2)s1	-12	1.38
